We go through two compounds from PubChem BioAssay AID2060337 (Molecular Pharmacology Branch, DTP, NCI, 2025).

The test deals with 832693-133-R-J1-PDC multi-cell spheroids, viability. Description: Anticancer human tumor 832693-133-R-J1-PDC patient-derived head and neck squamous carcinoma cell line growth inhibition [IpAb]. The source says: Combinatorial screen of targeted agents with ipatasertib and abemaciclib in multi-cell type tumor spheroids
A high-throughput screen of multi-cell type tumor spheroids was designed to identify active combinations of targeted small molecules and ipatasertib or abemaciclib. Complex spheroids include a stromal component modeled by human endothelial cells (HUVEC) and fibroblasts modeled by human mesenchymal stem cells (MSCs). The concentration ranges selected for each drug and investigational agent were based upon clinically achievable concentrations if the clinical Cmax of the agent was known.
Compounds. […] If the clinical Cmax for an agent had not been determined, the highest concentration tested was 10 microM.
NCI60 Cell Culture. […] The optimal seeding densities for each of the cell lines at each time point assessed were determined prior to performing the concentration response studies. […]

For part of its entries the source gives two or more results. Only these are listed. There may be further records. Values that stand side by side repeat one measurement across runs, samples, wells, individuals or studies.
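Also: spheroids exposed to the drugs for one week before the viability readout.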
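For viability, T/C in this document: 100% = DMSO vehicle control wells.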

In general, viability, T/C refers to the result in the treated group divided by that in the control group, in per cent. With `CC1(C)CCC(CN2CCN(c3ccc(C(=O)NS(=O)(=O)c4ccc(NCC5CCOCC5)c([N+](=O)[O-])c4)c(Oc4cnc5[nH]ccc5c4)c3)CC2)=C(c2ccc(Cl)cc2)C1`, the viability, T/C (compound alone 10 µM, stronger effect = lower value) is 43.1% and 4.29%.
Broadly, the IC50 is the concentration that gives 50% inhibition. Regarding `CCN1CCN(Cc2ccc(Nc3ncc(F)c(-c4cc(F)c5nc(C)n(C(C)C)c5c4)n3)nc2)CC1`, where the note is “compound alone, run of 05/18/2021”, the IC50 is on record as 706 nM, 740 nM, 526 nM, > 1 µM.
